# Reference: the supplement of paper PMC11417369
# ± gives the standard deviation of the averaged measurements. This is one part of the list.
# System: PfAP2-LT AP2 domain (GST-tagged)
# Test: gcPBM binding intensity (ln(normalized median fluorescence intensity)); higher = stronger DNA binding
# Method in brief: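 An Agilent 4 × 180k array carrying primer-extended double-stranded 36-bp intergenic genomic probes and negative controls received GST-tagged P. falciparum DNA-binding domains expressed in E. coli, about 25 μg on average, for 1 h. The binding buffer contained 1× PBS, 1% milk, 0.2 mg/ml BSA, 0.5% salmon testes DNA and 0.03% Triton X-100. Binding intensity is the top Masliner-normalised natural-log median intensity across replicate spots of either probe orientation, read after Alexa488 anti-GST antibody staining and a 488 nm scan.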
row,Sequence,gcPBM binding intensity (ln)
1,AAAATTTAAAAATGGACACACACAAAAAATAATACT [CACACA_site7972],9.38 ± 0.37
2,AATAATTATTTGTATAGTACAATATACAAAAGATGA [XGTACX_site4312],8.74 ± 0.52
3,ATATATATATGTGCCAGTACACATGTATACATTATA [XGTACX_site3899],8.99 ± 0.34
4,GATATATATATTCACACACACATGGAAATATATATA [CACACA_site382],9.38 ± 0.25
5,TCGTCACTTTAATATTGTACATATATATATATATAT [XGTACX_site8046],9.41 ± 0.057
6,TATAAATATAGACACACACACACACCGAAGCGTAGC [CACACA_site6180],10 ± 0.14
7,AAAATTAATAAATAAACACACATATTTATATTTATA [CACACA_site7266],8.6 ± 0.46
8,TGTGTAAATATGTATACACACATATCTGATCAATAT [CACACA_site7507],9.06 ± 0.38
9,TATATCTACTTAAAAAGTACGTAAATTATAAGCTAT [XGTACX_site6420],8.53 ± 0.45
10,TATATGTATTTATATACACACATATTCTTTTTACAC [CACACA_site8320],9.11 ± 0.46
11,AATATTTTGAACAACAGTACTCTTTCTTTCTTTCTT [XGTACX_site7212],8.7 ± 0.51
12,TCCTTTTCATCTTGTAGTACGGAAATGTAGCTCCAA [XGTACX_site8563],8.55 ± 0.42
13,ATATATAAAATTATATGTACATATATCTATTTATAA [XGTACX_site3713],8.62 ± 0.46
14,ACCTCACAAATGAATACACACAAACATATAGATTTA [CACACA_site6862],9.12 ± 0.5
15,TTTAAAATTTCTTAATGTACGTAATAAAAAAAAAAA [XGTACX_site4037],8.15 ± 0.4
16,GATTAAAACTTTAACTGTACATAATAATTATCAATC [XGTACX_site5938],8.6 ± 0.36
17,TATGTATAACTCAATGCATGCGAAGGACTATTATTT [TGCATGCA_site222],8.94 ± 0.15
18,AATATTGTTCACAAGGTGCTTTTTATTCATACTAAT,8.87 ± 0.35
19,TATAAAGCAACTGAAACACACAAATTTTTTTTTTTT [CACACA_site3218],8.72 ± 0.44
20,ACTATTTTCTTCAAAACATGCACCACATAAACATAA [TGCATGCA_site200],8.68 ± 0.32
21,ATTATTTATTTATGTGTGCGCATGTGTGTAAATATT,9.74 ± 0.28
22,TTAAACATATATTAAGCACACACAAACAAAAAAACA [CACACA_site8816],9.37 ± 0.31
23,TATACCAAATATATGGGTACACAAATATGTTTATTC [XGTACX_site8932],8.84 ± 0.42

row,Sequence,gcPBM binding intensity (ln)
1,AACATATTTTTTTGTTGTACTTACAATTATAAGCAT [XGTACX_site3056],8.64 ± 0.43
2,TAATTAATCGATTTACGCACATGAACAAAAGCACAT [CACACA_negctrl_site1287],8.95 ± 0.36
3,ATATATATATATATGTGTACATATTTTTTTTTTTTT [XGTACX_site3425],9.645 ± 0.05
4,AGAAAAAAAAAAAATGCACACATTTTCATTGTCAGT [CACACA_site1935],8.9 ± 0.42
5,AAAAAACACAGACATACACACAAAAAGGTTATAAAT [CACACA_site4222],9.49 ± 0.31
6,GTAAATATTAATAAAAGTACATATGTAGCATATGGA [XGTACX_site5219],9.07 ± 0.43
7,CCTTTTTTATTTACAACACACGTAAAGGTTCAAATA [CACACA_site1741],8.68 ± 0.42
8,ATTTTTTAAATGAGGCGTACACAAAAATATAATTAC [XGTACX_site7087],8.93 ± 0.37
9,TATATATATATATATACACACACACTAATAAAAAAA [CACACA_site8426],9.65 ± 0.057
10,CTTAGATATAAAAATTGTACATACATATTTTTGACA [XGTACX_site2107],8.5 ± 0.3
11,TTTTTTTCGTAAAAAAAAATAATTATTAAATGAAGG [TGCATGCA_negctrl_site212],8.04 ± 0.33
12,ACAGAAAAAAGACACACACACATAATATACATACAT [CACACA_site6991],10.1 ± 0.42
13,TATTTTTAATAAAAACGTACGGAATACAAAAAAAAT [XGTACX_site3477],8.78 ± 0.38
14,TATTATAAAATATACACATGCAAAAACAAAATTTAC [TGCATGCA_site1051],8.84 ± 0.38
15,TATATACATTGGTATACATGCATTCTCTTTCATACA [TGCATGCA_site734],8.87 ± 0.48
16,TAAAATTTATAAACTACACACATATAAATAGTAATA [CACACA_site7708],8.84 ± 0.42
17,TAAACACCCATATAAACACACATATAAACACCCATA [CACACA_site5382],9.4 ± 0.21
18,TTTATTTATTTTTAACGTACGCACACATATAAATAT [XGTACX_site4042],9.41 ± 0.54
19,TAATGAAGATATATAACACACAAAAGTTATAAATAT [CACACA_site6678],8.97 ± 0.43
20,ATATATAATAATATATGTACATAATATTTTTTTTTT [XGTACX_site1941],8.61 ± 0.47
21,GCCATTAATTTATACACACACATTAAAATTTTTTAT [CACACA_site4575],9.24 ± 0.37
22,GCTATAAATACAGACGCACACATATACATACATATA [CACACA_site3329],9.42 ± 0.33
23,TAATTTATAAATAATTGTACATAGTTTATTTAGATT [XGTACX_site4599],8.49 ± 0.43

row,Sequence,gcPBM binding intensity (ln)
1,TAATTATAAAAATAAAACAACCAAATTTGTTATATA [CACACA_negctrl_site750],8.47 ± 0.45
2,AAAAAAAAAAAAAAAAAATAATAAAAAATAAAAAAA [GTGCAC_negctrl_site341],8.4 ± 0.57
3,ATATATATAAAATAAAGTACCCGTAAAACCTATATG [XGTACX_site6937],8.98 ± 0.41
4,TATGTTAATCCTATTTGTACATATAATCGAATTAAA [XGTACX_site7090],8.47 ± 0.39
5,GACGACTATATTAATTGTACTCAATTTAAGCATAAT [XGTACX_site2750],8.72 ± 0.35
6,GAAAGGAAAAGTTGAACACACAAAGTAAACTATAAG [CACACA_site3535],9.1 ± 0.53
7,ATATATATATTAATTACACACAAAAAAAAAAAAAAA [CACACA_site1165],8.84 ± 0.41
8,AAAAAAAAAAAAAATATACACACTAATATATTTTTT [CACACA_site815],8.73 ± 0.41
9,TCATTCGAATAAATTGCACACATGACATCCGTTGTA [CACACA_site2587],9.16 ± 0.33
10,TATATACAGATATATACACACATATTTATATTTTAT [CACACA_site7734],8.89 ± 0.41
11,GTATAGAGAAAAAACTGTACTTTATATAAATATTTA [XGTACX_site3972],8.52 ± 0.48
12,TATTAATAATATAATAGTACTTTCACTGTAAATTTA [XGTACX_site6419],8.41 ± 0.54
13,TATCCTACATTAACAAGTACAAAGAGATCCTACGTA [XGTACX_site4252],8.57 ± 0.34
14,AAGAATATATAGGACACACATACAATAATAAATATA [CACACA_site4119],9.16 ± 0.54
15,AACGCCACTTCAATGGCACACACCAATTATTTTTCA [CACACA_site1026],8.95 ± 0.39
16,TTTCTCCATATTAAAGTGCATTAATAACAAAAATAA [GTGCAC_site9934],8.31 ± 0.42
17,CAAGAACAAAAAATATGTACATATAATTATATATAT [XGTACX_site2082],8.99 ± 0.52
18,CATATCTCTTATTAATGTACATTTTTAAAAGTAAAT [XGTACX_site2847],8.49 ± 0.44
19,CTTTTTTTTATGAACAGTACAGAAATATATATATAC [XGTACX_site5613],8.5 ± 0.42
20,TTTATATAATGGAAAAGTACTCAGGAAATTTATACA [XGTACX_site3635],8.45 ± 0.35
21,TTTTTTTCTATAATACACCAGAAAAAAAAATTAAAA [TGCATGCA_negctrl_site257],8.09 ± 0.47
22,TTGTTCCAATAAAATCGTACAATTAAACAACCAAAC [XGTACX_site5759],8.91 ± 0.25
23,CAATCAACAAAACATACACACACATATATATATATA [CACACA_site8979],10 ± 0.33

row,Sequence,gcPBM binding intensity (ln)
1,AGATTGAAATATAGTTGTACAAATATTTTAAAACAT [XGTACX_site3026],8.87 ± 0.51
2,TTAAAATTAAAAATAGGTACACATATGAACAAGGAC [XGTACX_site1180],9.1 ± 0.43
3,TTATATGATATATGACGTACATATTAATAACATCTA [XGTACX_site6716],8.66 ± 0.32
4,TGTAATATTTTATAAAGTACATTATAATATAATTCA [XGTACX_site2961],8.32 ± 0.38
5,TTTAGCTATTATAGCTGTACAATGATAAAATAAATT [XGTACX_site6318],8.4 ± 0.42
6,ATGATTATAATTTAAAATATTTTACATAACCATTTC [GTGCAC_negctrl_site297],8.62 ± 0.45
7,ATAAGTAAAAATAAAAAAAAAATATATATATATATA [CACACA_negctrl_site1816],9.33 ± 0.14
8,GTTCATATCTTTTGAGCACACATATATATATATAAA [CACACA_site9099],8.88 ± 0.33
9,AATGAATCCTTATATACACACATTATTATATTATAT [CACACA_site3108],9.04 ± 0.4
10,ATTAGCAACATTGATAAATATAAACACACGAAAACA [TGCATGCA_negctrl_site97],9.07 ± 0.41
11,TTTTTGTTCTATATGGTGCATGTTTATATTCGTATT,9.12 ± 0.52
12,TTTTAGAAATTTACTAAACTTTATATAACTATTGAA [TGCATGCA_negctrl_site280],8.13 ± 0.61
13,ATACCATAAATATTGTGTACATAAATATGTTAGTAA [XGTACX_site6077],8.84 ± 0.42
14,CACGTATATATATATACACACACATATATATATGTA [CACACA_site7948],9.32 ± 0.26
15,CATGTTTATGCCGTTTGTACATATATATCTAAAAAA [XGTACX_site4336],8.53 ± 0.28
16,GAGAAAAGGAAATTCACACATATAAAGAAAGATCTA [CACACA_site5420],8.71 ± 0.51
17,ATTGATACATCCAATACACACTACATATAATGATGT [CACACA_site8561],9.11 ± 0.34
18,GTATGTATGTATATATGTACACATTATTATTTAATG [XGTACX_site5802],8.88 ± 0.42
19,ATATTAATAATATATGCATGCATTAACATATTGAAA [TGCATGCA_site951],8.88 ± 0.28
20,TTTTTTATATATACATATATATAAATATATATAACT [GTGCAC_negctrl_site385],8.45 ± 0.45
